Source: the RNAGym collection of RNA variant scans (doi:10.7554/elife.90254)
Read counts are not given, so values of variants with three or more changes are uncertain.

B1: LINE1-mini (parent)
chain: GGCAGAGCUCAACACAGCGUGGCAAAGUGGCUGUGGCUAGACUGCC

Variants of: B1
Assay: self-cleavage, relative activity (ratio to wild type); higher = more cleavage; in vitro, sequencing; the parent is a self-cleaving ribozyme

| Variant | self-cleavage |
| --- | --- |
| GGCAGAGUUCAACACAGCGUGGUUAAGUGGCUGUGGCUAGACUGCC [C8U C23U A24U] | 0.22 |
| GGCAGAGUUCAACACAGCGUGGUAAAGUGGCUGUCGCUAGACUGCC [C8U C23U G35C] | 0.04 |
| GGCAGAGUUCAACACAGCGUGGUAAAGUGGCUGUGGCUAUACUGCC [C8U C23U G40U] | 0.57 |
| GGCAGAGUUCAACACAGCGUGGCAAAGUGGACAUGGCUAGACUGCC [C8U C31A U32C G33A] | 0.1 |
| GGCAGAGUUCAACACAGCGUGGCAAAGUGGCUGUGGCUAGAAGGCC [C8U C42A U43G] | 0.14 |
| GGCAGAGUUCAACACAGCGUGGCAAAGUGGCUGUGGCUAGAUCGCC [C8U C42U U43C] | 0.45 |
| GGCAGAGUUCAACACAACGUGGCAAAGUGGCUGUAGCUAGACUGCC [C8U G17A G35A] | 0.02 |
| GGCAGAGUUCAACACACCGUGGCAAAGUGGGUGUGGCUAGACUGCC [C8U G17C C31G] | 0.09 |
| GGCAGAGUUCAACACACCGUGGCAAAGUGGCCGUGGCUAGACUGCC [C8U G17C U32C] | 0.13 |
| GGCAGAGUUCAACACAUAGUGGCAAAGUGGCUGUGGCUAGACUGCC [C8U G17U C18A] | 0.04 |
| GGCAGAGUUCAACACAUCGUGGGAAAGUGGCUGUGGCUAGGCUGCC [C8U G17U C23G A41G] | 0.01 |
| GGCAGAGUUCAACACAUCCUGGCAAAGAGGCUGAGGCUACACUGCC [C8U G17U G19C U28A U34A G40C] | 0.01 |
| GGCAGAGUUCAACACAUCGUGGCAAACUGGCUGUGGCUAGAUUGCC [C8U G17U G27C C42U] | 0.05 |
| GGCAGAGUUCAACACAGCCUGGUAAAGUGGCUGUGGCUAAGCUGCC [C8U G19C C23U G40A A41G] | 0.17 |
| GGCAGAGUUCAACACAGCCUGACAAAUUGGCUGUGGCUAGACUGCC [C8U G19C G22A G27U] | 0.16 |
| GGCAGAGUUCAACACAGCCUGGCAAAGUGGCUGUGGCCAGACUGCC [C8U G19C U38C] | 0.02 |
| GGCAGAGUUCAACACAGCUUGGCAAAGUGGCUGUGGAUAGACUGCC [C8U G19U C37A] | 0.07 |
| GGCAGAGUUCAACACAGCUAGGCAAAGUGGAUGUGGCUAGACUGCC [C8U G19U U20A C31A] | 0.08 |
| GGCAGAGUUCAACACAGCUGGGCAAAGUCGCUGUGGCUAGACUGCC [C8U G19U U20G G29C] | 0.12 |

| Variant | self-cleavage |
| --- | --- |
| GGCAGAGUUCAACACAGCGUAGCAAAGUGGCUGUGGCUAGCCUGCC [C8U G21A A41C] | 0.24 |
| GGCAGAGUUCAACACAGCGUAGUGAAGUUGCUGUGGCUAGACUGCC [C8U G21A C23U A24G G29U] | 0.12 |
| GGCAGAGUUCAACACAGCGUAGCAAAGGCGCUGUGGCUAGACUGCG [C8U G21A U28G G29C C46G] | 0.01 |
| GGCAGAGUUCAACACAGCGUCGCAACGUGGCUGUGGCUAGACUGCC [C8U G21C A26C] | 0.05 |
| GGCAGAGUUCAACACAGCGUCGCAAAGUGGCUGUGACUAGACUGCC [C8U G21C G36A] | 0.18 |
| GGCAGAGUUCAACACAGCGUGACAAAGUGGCUGUCGCUAGACUACC [C8U G22A G35C G44A] | 0.14 |
| GGCAGAGUUCAACACAGCGUGACAAAGUGGCUGUGGCUAAACUGCC [C8U G22A G40A] | 0.34 |
| GGCAGAGUUCAACACAGCGUGUCAAAGUGGCUGUGGUUAGACUGCC [C8U G22U C37U] | 0.09 |
| GGCAGAGUUCAACACAGCGUGUCAAAUUGGCUGUGGGUAGACUGCG [C8U G22U G27U C37G C46G] | 0.05 |
| GGCAGAGUUCAACACAGCGUGUCAAAGUGGCUGUGGCUACACUGAC [C8U G22U G40C C45A] | 1.4 |
| GGCAGAGUUCAACACAGCGUGGCAAAAUGACUGUGGCUAGACUGCC [C8U G27A G30A] | 0.09 |
| GGCAGAGUUCAACACAGCGUGGCAAAAUGGCUGUGGCUAUACUGCC [C8U G27A G40U] | 0.97 |
| GGCAGAGUUCAACACAGCGUGGCAAAAUGGCGGUGGCUAGACUGCU [C8U G27A U32G C46U] | 0.15 |
| GGCAGAGUUCAACACAGCGUGGCAAACCGGGUGUGGUUAGACUGCC [C8U G27C U28C C31G C37U] | 0.18 |
| GGCAGAGUUCAACACAGCGUGGCAAAUUGGGUGUUGCUAGACUGCC [C8U G27U C31G G35U] | 0.01 |
| GGCAGAGUUCAACACAGCGUGGCAAAGUCGUUGUUGCUAGACAGCC [C8U G29C C31U G35U U43A] | 0.14 |
| GGCAGAGUUCAACACAGCGUGGCAAAGUCGCUGUGGCUAGACAGCC [C8U G29C U43A] | 0.03 |
| GGCAGAGUUCAACACAGCGUGGCAAAGUUGCUGUGGCUAGAUUUCC [C8U G29U C42U G44U] | 0.11 |
| GGCAGAGUUCAACACAGCGUGGCAAAGUUCCUGUGGCUAAACUGCC [C8U G29U G30C G40A] | 0.04 |

| Variant | self-cleavage |
| --- | --- |
| GGCAGAGUUCAACACAGCGUGGCAAAGUGACUGUGGCUGGACUGCC [C8U G30A A39G] | 0.08 |
| GGCAGAGUUCAACACAGCGUGGCAAAGUGACUGUGCCUUGACUGCC [C8U G30A G36C A39U] | 0.06 |
| GGCAGAGUUCAACACAGCGUGGCAAAGUGUCUGUGGCUAGACUGUC [C8U G30U C45U] | 0.61 |
| GGCAGAGUUCAACACAGCGUGGCAAAGUGUCUGUGGCUAUACUGCC [C8U G30U G40U] | 0.02 |
| GGCAGAGUUCAACACAGCGUGGCAAAGUGUCUGUGGCAAGACUGCC [C8U G30U U38A] | 0.26 |
| GGCAGAGUUCAACACAGCGUGGCAAAGUGGCUUUGGCUAGCCUGCC [C8U G33U A41C] | 0.12 |
| GGCAGAGUUCAACACAGCGUGGCAAAGUGGCUGUUGCUAGACUGUC [C8U G35U C45U] | 0.39 |
| GGCAGAGUUCAACACAGCGUGGCAAAGUGGCUGUUGCUAGACAGCC [C8U G35U U43A] | 0.21 |
| GGCAGAGUUCAACACAGCGUGGCAAAGUGGCUGUGACUACACUGCC [C8U G36A G40C] | 0.28 |
| GGCAGAGUACAACACAGCGUGGCCAAGUGGCUGUGACUAGAUUGCC [C8U U9A A24C G36A C42U] | 0.27 |
| GGCAGAGUACAACACAGCGUGGCAACGUGGCUGUGGCUAGACUGCC [C8U U9A A26C] | 0.15 |
| GGCAGAGUACAACACACCGUGGCAAAGUGGCUGUGGCUCGACUGCC [C8U U9A G17C A39C] | 0.29 |
| GGCAGAGUACAACACAGCGUGGCAAAGUGGCUCUGGCUAGACUGCC [C8U U9A G33C] | 0.06 |
| GGCAGAGUACAACACAGCGUGGCAAAGUGGCUGUGGCUAGACUUCC [C8U U9A G44U] | 0.46 |
| GGCAGAGUCCAACACGGCGUGGCAAAGUGGCUGUGGCUAGACUCCC [C8U U9C A16G G44C] | 0.03 |
| GGCAGAGUGCAACCCUGCGUGGCAAAGUGGCUGUGGGUAGACUGCC [C8U U9G A14C A16U C37G] | 0.03 |
| GGCAGAGUGCAACACAGCGUGGAUAAGUGGCUGUGGCUAGGCUGCC [C8U U9G C23A A24U A41G] | 0.21 |
| GGCAGAGUGCAACACAGCGUGGCAAAGUGGAUGUGGCUAGACUGCC [C8U U9G C31A] | 0.03 |
